Data taken from the supplement of paper PMC3334620.
In all, about 33,000 sequences were measured (“E-score (-0.5 to 0.5)”: median about -0.035, highest 2% from about 0.34 on). The list shows a part of the results.

These sequences were tested against T1, Mot3 (UniProt P54785) (assay: PBM E-score (8-mer binding enrichment) (E-score (-0.5 to 0.5)); higher = stronger / more preferred TF binding; most listed sequences are background and not binding sites). Conditions: protein concentration: 200 nM; construct: GST-full length.
T1 sequence: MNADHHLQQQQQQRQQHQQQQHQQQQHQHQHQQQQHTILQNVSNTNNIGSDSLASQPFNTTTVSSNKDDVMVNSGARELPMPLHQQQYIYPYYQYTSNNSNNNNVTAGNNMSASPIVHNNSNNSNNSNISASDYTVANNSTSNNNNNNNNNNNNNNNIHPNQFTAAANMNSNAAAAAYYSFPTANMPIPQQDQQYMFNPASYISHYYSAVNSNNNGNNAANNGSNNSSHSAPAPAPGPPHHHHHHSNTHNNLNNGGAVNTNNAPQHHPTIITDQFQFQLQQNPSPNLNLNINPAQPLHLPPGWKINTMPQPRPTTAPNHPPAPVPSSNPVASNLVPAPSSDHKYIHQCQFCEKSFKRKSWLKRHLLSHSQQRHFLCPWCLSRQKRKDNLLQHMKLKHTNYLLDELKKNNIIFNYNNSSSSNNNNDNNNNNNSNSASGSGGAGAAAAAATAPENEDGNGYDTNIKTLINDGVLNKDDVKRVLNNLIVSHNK
Summary of the method: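 Masliner-normalised scans of fluorescent anti-GST signal were the basis for scoring. That signal came from GST-tagged yeast transcription factors applied at about 100-200 nM to double-stranded universal all-10-mer Agilent arrays on fresh or once-stripped slides. Each ungapped eight-base word, pooled with its reverse complement, received an E-score from the Universal PBM Analysis Suite.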

Row | Sequence | PBM E-score
1 | GCACATGC | 0.155
2 | GATTAGAC | -0.113
3 | AGATACAA | 0.107
4 | GGGTCAGA | -0.332
5 | CTCTACAA | 0.169
6 | AACCGCAC | 0.00099
7 | CACCGAGA | -0.07
8 | CCAACTGC | -0.311
9 | ACAGCGGA | -0.186
10 | AAGCGGGA | -0.193
11 | ACATGAAG | 0.344
12 | CCTTGATC | 0.117
13 | CGCCCCAG | -0.206
14 | GAGCATGC | -0.0338
15 | AGCGGCGG | -0.0738
16 | AGCATATA | -0.154
17 | TTATATAA | 0.157
18 | CACAATGG | 0.0606
19 | CATCATTA | 0.216
20 | GAGGTAAC | -0.0204
21 | TATCTACA | 0.281
22 | CCGCCATC | -0.28
23 | ACAAGAAC | 0.225
24 | CAGCACAA | 0.132
25 | GTTGATTA | 0.224

Row | Sequence | PBM E-score
26 | CTAATCAG | -0.131
27 | ACGGGGCT | -0.233
28 | CCGCATTC | -0.198
29 | ACCACTCA | -0.167
30 | CCTCGCCC | -0.164
31 | ATTACTCG | 0.279
32 | ATACTGTG | 0.013
33 | ATCATTAC | 0.228
34 | CAACCCTA | -0.0507
35 | ATAGTCGC | -0.226
36 | CGTGGCTC | -0.217
37 | ATGTGAGA | -0.00499
38 | CCGGCCTA | -0.056
39 | CTTCTATC | -0.047
40 | AAGCCAGC | 0.00078
41 | AGAACTTG | -0.013
42 | AATGGCTG | -0.155
43 | GTAGCTTA | -0.111
44 | CATCCTCC | -0.151
45 | CGCGGCCA | -0.213
46 | GCGGAACA | -0.17
47 | GGGCGACC | -0.398
48 | CGGTGAAC | -0.0708
49 | CAGCTAGG | -0.0566
50 | CACGTCTG | 0.0378

Row | Sequence | PBM E-score
51 | ACGTCACA | 0.0936
52 | CGATATAG | 0.0679
53 | CAACTGCA | 0.0273
54 | AAATACAC | 0.37
55 | CTTTCAAC | 0.161
56 | AACCTTGC | 0.121
57 | ACCCTTAC | -0.0328
58 | CGATAAAA | -0.0825
59 | CCTCAGGC | 0.231
60 | AAGACCGG | -0.247
61 | AGGGTTAG | -0.0651
62 | CGGACTCC | -0.105
63 | GTCGTCCA | -0.0835
64 | ACATATGA | 0.131
65 | AATGGGAC | -0.207
66 | CACGATCG | 0.0843
67 | CAAATCGG | -0.285
68 | CAACATAA | 0.289
69 | GTGAGCAC | -0.0528
70 | CAGGTGCA | 0.0796
71 | AGTGCAAA | 0.101
72 | ACCCGTCA | -0.239
73 | AGCGCCCC | -0.216
74 | CACGCTCG | 0.0432
75 | CTTTGTTA | 0.218

Row | Sequence | PBM E-score
76 | CTTGAGGA | -0.0875
77 | ATTATGAC | 0.0522
78 | CGGGACCC | -0.0194
79 | GTAAGTTA | 0.162
80 | ATCTGGTA | 0.192
81 | CAAGCATC | -0.0764
82 | ACGTACGC | 0.253
83 | AGACCTCC | -0.413
84 | CTCGTCTC | -0.289
85 | ACAAGGAC | 0.0766
86 | CGTTATTA | 0.167
87 | AGGGAATA | 0.0807
88 | TATATATA | 0.179
89 | ATGCATGG | 0.0636
90 | GATGTCAA | 0.144
91 | ATTCCAGA | -0.185
92 | CATGGGGA | -0.0458
93 | GAGAATCA | -0.261
94 | TATCCGCA | 0.134
95 | CGACCAAG | -0.0763
96 | TGGAAAAA | 0.0684
97 | AGTACTAG | 0.0604
98 | CTTTTGAC | 0.26
99 | AGAACAGA | 0.158
100 | CATGCTCC | 0.0425

Row | Sequence | PBM E-score
101 | AGTGCGGG | -0.241
102 | CTCTTCAG | -0.203
103 | AGGCGCTG | 0.199
104 | ATGTTCAC | 0.213
105 | CCGACATC | -0.275
106 | GAAGTGGC | -0.22
107 | CCTACGGA | 0.119
108 | GCCGTTTA | -0.0385
109 | CGTTTGTA | 0.167
110 | ACCGGCAG | -0.222
111 | CAGCGCGC | -0.043
112 | AACGACTC | -0.0648
113 | GCTACACA | 0.253
114 | CTGGAAAC | 0.0157
115 | TAGAGCCA | -0.0709
116 | CATGAGTC | 0.0784
117 | AATGAATC | -0.0146
118 | CACTAATC | -0.126
119 | AGCTGCTA | -0.2
120 | GCTACGAC | -0.0179
121 | CATTTTTA | 0.0617
122 | CACTTCTG | -0.0864
123 | CACGAATC | 0.14
124 | CGTATACA | 0.251
125 | ATTAGTAA | 0.164

Row | Sequence | PBM E-score
126 | GAGCCCTA | -0.152
127 | ATCGTTCG | -0.025
128 | AATCCTGA | -0.0452
129 | CATGTTCA | 0.296
130 | CCCTTACA | 0.202
131 | CCGAGTGC | -0.213
132 | GTTCTTGA | 0.102
133 | CATCCATC | -0.132
134 | GCGTCGAC | -0.066
135 | GGAAAACC | 0.185
136 | GCCCGTCA | -0.258
137 | CTACATTC | 0.0249
138 | GACGTTCA | -0.16
139 | GCGGCCCA | -0.201
140 | TGCTTTAA | 0.142
141 | ATTGGGAA | -0.213
142 | CTATTCCC | -0.154
143 | CCACCACA | 0.0219
144 | AACAAAGG | 0.155
145 | CCGACTTA | -0.115
146 | GTGTCGAA | 0.0976
147 | AGCAGGAG | -0.0982
148 | ATTGTGTA | 0.346
149 | AGAGTCAG | -0.0441
150 | AGTGGGTG | -0.124

Row | Sequence | PBM E-score
151 | AACCCTGG | -0.127
152 | ACTTAGCC | -0.115
153 | AATGTGTG | 0.166
154 | CGCTGTTA | -0.0162
155 | ACATATCT | 0.215
156 | CTTTTTGA | 0.00873
157 | CCTTGACA | 0.133
158 | CCCGTCAA | -0.124
159 | CATTGCCG | 0.00256
160 | AGTAGACA | 0.105
161 | CACACTTC | 0.0757
162 | GAAGCCAC | -0.196
163 | GAAGCAGA | -0.0484
164 | AAACAGCT | -0.268
165 | GATGAATA | 0.108
166 | AGGTACGA | 0.346
167 | AGATGATA | 0.0421
168 | AACCTAAA | 0.198
169 | GGACCGTA | -0.201
170 | ATCGTCTG | -0.22
171 | CCCGCGGG | -0.0809
172 | ACGTGCCA | 0.00099
173 | CCGGAGTA | -0.0441
174 | CTGCGTTC | 0.0947
175 | CATACCAA | 0.124

Row | Sequence | PBM E-score
176 | AGACGATC | -0.288
177 | ACTGGGAC | 0.00503
178 | GCACAGAA | 0.0237
179 | AACAACGT | 0.113
180 | GCACAGCA | 0.144
181 | CTGATAAA | 0.0655
182 | ACCGAGTC | -0.166
183 | ACCGACAG | -0.18
184 | CCCGACCC | -0.183
185 | ACTATATA | 0.137
186 | CATGCTAC | -0.0683
187 | GATAGCCA | -0.3
188 | AGGCCCAG | -0.143
189 | TATACTAA | 0.0563
190 | ATATTCGG | -0.0963
191 | ATTTACGC | 0.239
192 | GGCGGCCA | -0.169
193 | AAGTTTCA | 0.0149
194 | CGCACACA | 0.0423
195 | GGCGCCAA | 0.04
196 | CGTCAGTC | -0.0396
197 | GCTTGCTA | -0.197
198 | AGTTGAGA | -0.078
199 | GCGAGCTA | -0.129
200 | AGAGTAAA | 0.162

Row | Sequence | PBM E-score
201 | ACGTTACT | 0.137
202 | CATTGTCG | 0.149
203 | TCAAAGCA | 0.0103
204 | AACACAAA | 0.22
205 | ACAGTCAA | 0.0247
206 | ATGCGTCC | -0.143
207 | GGACGCAA | -0.294
208 | ATAGTAAC | 0.0835
209 | TAACAGTA | 0.0732
210 | CTCGAACC | -0.164
211 | CACAGGAG | 0.0555
212 | CTGTGTGC | 0.085
213 | CGCTACGA | -0.063
214 | CGTGCCCC | 0.00946
215 | GAAACTAC | 0.139
216 | CCTCCAGC | -0.32
217 | ATATACAT | 0.324
218 | AGGTATTG | 0.129
219 | ACGACCTC | 0.101
